Results from the RNAGym collection of RNA variant scans (doi:10.1073/pnas.2313332121).
This sample is rich in variants without activity.

B1: TPR 5TU (parent)
chain: GGAUCUUCUCGAUCUAACAAAAAAGACAAAUCUGCCACAAAGCUUGAGAGCAUCUUCGGAUGCAGAGGCGGCAGCCUUCGGUGGCGCGAUAGCGCCAACGUUCUCAACUAUGACACGCAAAACGCGUGCUCCGUUGAAUGGAGUUUAUCAUG

Variants of: B1
Experiment: polymerase ribozyme fitness, log enrichment relative to wild type (log ratio); higher = more active; in vitro selection for triplet polymerase activity
Summary of the method: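 Frozen incubation at −7 °C formed the core of a single, triplicate in vitro selection round applied to PCR-built, transcribed mutant libraries of each subunit of a heterodimeric triplet polymerase ribozyme. Extended constructs were gel-excised, captured with streptavidin beads and amplified by RT-PCR, and input and output libraries were Illumina-sequenced with a filter of ≥10 input reads and ≥1 read per output. Fitness is the logarithm of genotype enrichment relative to wild-type enrichment, with inverse-variance-weighted replicate averaging, and the logarithm is base 2.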

| Variant | polymerase ribozyme fitness (log ratio) |
| --- | --- |
| GGAUCUUCUCGAUCUAACAAAAAAGACAAAUCUGCCACAAAGCUUGAGAGCAUCUACGGAUGCAGAGGCGGCAGCCUUCGGUGGCGCCAUAGCGCCAACGUUCUCAACUAUGAUGCGCAAAACGCGUGCUCCGUUGAAUGUAGUUUAUCAUG | ≤ -4.2 |
| GGAUCUUCUCGAUCUAACAAAAAAGACAAAUCUGCCACAAAGCUUGAGAGCAUCUACGGAUGCAGAGGCGGCAGCCGUCGGUGGAGCGAUAGCGCCAACGUUCUCAACUAUGACACGCAAAACGCGUGCUCCGUUGAAUGGAGUUUAUCAUG | ≤ -4.2 |
| GGAUCUUCUCGAUCUAACAAAAAAGACAAAUCUGCCACAAAGCUUGAGAGCAUCUCCGGAUGCAGAGGCGGCAGCAUUCGGUGGCGCGAUAGCGCCAACGUUCUCAACUAUGACACGCAAAGCGCGUGCUCCGUUGAAUGGAGUUUAUCAUG | -0.262 |
| GGAUCUUCUCGAUCUAACAAAAAAGACAAAUCUGCCACAAAGCUUGAGAGCAUCUACGGAUGCAGAGGCGGCAGCCUUCGGUGGCGCGAUAUCGCCAACGUUCUUAACUAUGAAACGCAAAACGCGUGCUCCGUUGAAUGGAGGUUAUCAUG | ≤ -4.2 |
| GGAUCUUCUCGAUCUAACAAAAAAGACAAAUCUGCCACAAAGCUUGAGAGCAUCUACGGAUGCAGAGGCGGCAGCCUUCGGUGGCACGAUAGCGCCAACGUUCUCAACUAUGACACGCAAAACGCGUGCUCCGUUGAAUGGAGUUUAUCAUG | -1.16 |
| GGAUCUUCUCGAUCUAACAAAAAAGACAAAUCUGCCACAAAGCUUGAGAGCAUCUACGGAUGCAGAGGCGGCAGCCUGCGGUGGCGCGAUAACGCCAACGUUCUCAACUAUGACACGCAAAACGCGUGCUCCGUUGAAUGGAGAUUAUCAUG | ≤ -4.2 |
| GGAUCUUCUCGAUCUAACAAAAAAGACAAAUCUGCCACAAAGCUUGAGAGCAUCUCCGGAUGCAGAGGGGGCAGCCUUCGGUGGCGCGAUAGCGCCAACGGUCUCAACUGUGACACGCAAAACGCGUGCUCCGUUGUAUGGAGUUUAUCAUG | ≤ -4.2 |
| GGAUCUUCUCGAUCUAACAAAAAAGACAAAUCUGCCACAAAGCUUGAGAGCAUCUCUGGAUGCAGAGGCGGCAGCCUUCGGUGGCGCGUUAGCGGCAACGUUCUCAACUAUGACACGCAAAACGCGUGCUCCGUUGCAUGGAGUUUAUCAUG | -4.07 |
| GGAUCUUCUCGAUCUAACAAAAAAGACAAAUCUGCCACAAAGCUUGAGAGCAUCUACGGAUGCAGAGGCGGCAGCCUUCGGUGACGGGAUAGCGCGAACGUUCUCAACUAUGACACGCAAAACGCGUGCUCCGUUGAAUGGAGUUUAUCAUG | ≤ -4.2 |
| GGAUCUUCUCGAUCUAACAAAAAAGACAAAUCUGCCACAAAGCUUGAGAGCAUCUACGGAUGCAGAGGCGGCAGCCUUCGGUGGCGCGAUAGCGCGAACGUUCUCAACUAUGACACGCAAAACGCGUGCUCCGUUGAAGGGAGUUUAUCAUG | -0.96 |
| GGAUCUUCUCGAUCUAACAAAAAAGACAAAUCUGCCACAAAGCUUGAGAGCAUCUACGGAUGCAGAGGCGGCAGCCUUCGGUGGCGCGAUAGCGUCAAUGUUCUCAACUAUGACACGCAAAACGGGUGCUCCGUUGAAUGGAGUUUAUCAUG | -2.57 |
| GGAUCUUCUCGAUCUAACAAAAAAGACAAAUCUGCCACAAAGCUUGAGAGCAUCUACGAAUGCAGAGGCGGCAGCCUUCGGUGGCGCGAUAGCGCCAACGUUCUCAACUAUGCCACGCAAAACGCGUGCUCCGUUGAAUGGAGUUUAUCAUU | ≤ -4.2 |
| GGAUCUUCUCGAUCUAACAAAAAAGACAAAUCUGCCACAAAGCUUGAGAGCAUCUACCGAUGCAGAGGCGGCAGCCUUCGGUGGCGCGAUAGAGCCAACGUUCUCAACUAUGACACGCAAAACACGUGCUCCGUUGAAUGGAGUUUAUCAUG | -2.36 |
| GGAUCUUCUCGAUCUAACAAAAAAGACAAAUCUGCCACAAAGCUUGAGAGCAUCUACGGAUGCAGAGGCGGCAGCCUUCGGUGGCGCGAUAGCGCAAACGUUUUCAACUAUGACACGCAAAACGCGUGCUCCGUUGAAUGGAGUUUAUCAUG | 0.293 |
| GGAUCUUCUCGAUCUAACAAAAAAGACAAAUCUGCCACAAAGCUUGAGAGCAUCUACCGAUGCAGAGGCGGCAGCCUUCGGUGGCGCGAUAGCGCCAACGUUCUCAACUAUGACACGCAAAACGCGUGCUCCGAUGAGUGGAGUUUAUCAUG | ≤ -4.2 |
| GGAUCUUCUCGAUCUAACAAAAAAGACAAAUCUGCCACAAAGCUUGAGAGCAUCUACGGAUGCAGAGGCGGCAGCCUUCGGUGGCGCGAAAGCGCCAUCGUUCUCAGCUAUGACACGCAAAACGCGUGCUCCGUUGAAUGGAGUUUAUCAUG | ≤ -4.2 |
| GGAUCUUCUCGAUCUAACAAAAAAGACAAAUCUGCCACAAAGCUUGAGAGCAUCUACGCAUGCAGAGGCGGCAGCCUUCGGUGGCGCGAUAGCGCCAACGUUCUCAACUAUGACACGCAAAACGCGUGCUCCGUUGAAAGGAGUUUAUCAUG | ≤ -4.2 |
| GGAUCUUCUCGAUCUAACAAAAAAGACAAAUCUGCCACAAAGCUUGAGAGCAUCUACGGAUGCAGAGGCGGCAGCCUUCGGUGGCGCGAUAGCGCCAACGUUCUCAACUAUGACACGCAAAACGCGUGCUCCGUUGAAUGGAGUUAACCAUG | -2.96 |
| GGAUCUUCUCGAUCUAACAAAAAAGACAAAUCUGCCACAAAGCUUGAGAGCAUCUACGGAUGCAGAGGCGGCAGCCUUCGGUUGCGCGAUAGGGCCAACGUUCUCAACUAUGACACGCAAAACACGUGCUCCGUUUAAUGGAGUUGAUCAUG | ≤ -4.2 |
